# From PubChem BioAssay AID1963576 (National Center for Advancing Translational Sciences (NCATS), 2024)
# Out of some 46,000 compounds screened, about 60 (0.1%) were called active. The shares of active, inactive and inconclusive entries below differ from those in the screen. The call rests on the fitted dose curve; in most records, active means well fitted inhibition curve with a large enough effect; inconclusive means small, poorly fitted or top-dose-only effect; inactive means no such curve, though single readings can be large or run the other way. Potencies of inconclusive entries are left out as doubtful fits. Non-standard residues stand in square brackets, D forms with d. Residues, ends and D or L forms follow the SMILES beside them. *: point of attachment. Nva = CCC[C@H](N)C(=O)O; Cbz = O=C(OCc1ccccc1)*
# Test: Primary qHTS assay for Inhibitors of ovarian cancer metastasis using an organotypic tumor microenvironment (TME) model. Further: nearly all actives have a fitted effect of over 65% in size.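 On Potency: count of GFP cancer cells still attached after washing and fixation.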
# Settings: SKOV3ip1-GFP adhesion/invasion on 3D omental model, fluorescence; series mostly up to 45.8 µM
# In short: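 qHTS, 4-pt dose (0.36-46 umol/L); SKOV3ip1-GFP, 1,200 cells/well, no FBS; primary omental fibroblast/mesothelial co-culture 48 h pre-grown; 2 h RT + 16 h 37 C; PBS wash, 4% PFA; GFP count 488/509 nm.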
# Potency means the concentration at half of the fitted maximal effect; tags describe the fitted curve by direction and shape.
row,SMILES,Potency
1,O=C(Nc1cccc(-c2nc3ccccc3o2)c1)C(F)(F)F,"inconclusive [inhibitor, single point]"
2,CC(=O)c1ccc(NC(=O)CN(C)S(=O)(=O)c2cnc[nH]2)cc1,"inconclusive [inhibitor, single point]"
3,O=C(CCCc1ccccc1)NC1CC(=O)N(c2ccc(F)cc2)C1 (configuration not stated),inactive
4,O=c1cc(-c2ccccc2)n2c(SCc3ccc(Cl)cc3)nnc2[nH]1,"inconclusive [inhibitor, single point]"
5,Cc1ccc2nc(N3CCC(C(=O)N4CCN(c5cccc(C)c5C)CC4)CC3)[nH]c2c1,"inconclusive [inhibitor, single point]"
6,CCCN(Cc1cccs1)C(=O)Nc1ccc(OCC)cc1,inactive
7,Cc1ccc(C2CCN(C(=O)c3cnn(-c4cccc(Cl)c4)c3C3CCN(C(=O)OC(C)(C)C)CC3)C2)cc1 (configuration not stated),"inconclusive [inhibitor, single point]"
8,Cc1nc2cccnc2n1C1CCN(S(C)(=O)=O)CC1,"inconclusive [inhibitor, partial curve, poor fit]"
9,CN(CCCNC(=O)c1cc2c(Cl)nc3ccccc3c2s1)Cc1ccccc1,"inconclusive [inhibitor, single point]"
10,COc1ccc(CCNC(=O)c2ccc(Nc3nc4ccccc4n4nnnc34)cc2)cc1OC,inactive
11,CCOc1ccccc1CNC(=O)C1CCN(c2nnc(C)c3c(C)n(-c4ccc(C)cc4)nc23)CC1,active: 7.94 µM
12,CCc1ccccc1N1CC(c2nc3ccccc3n2CCCCOc2ccccc2OC)CC1=O (configuration not stated),"inconclusive [inhibitor, partial curve, poor fit]"
13,Nc1ccc(C(=O)Nc2cccc(-c3nc(N4CCOCC4)c4oc5ncccc5c4n3)c2)cn1,inactive
14,O=C(NCc1ccccc1)c1cccc(Nc2nc3ccccc3n3nnnc23)c1,inactive
15,CCOC(=O)c1c(C)[nH]c(CCC(=O)NCCCN2CCN(c3cccc(Cl)c3)CC2)c1C,"inconclusive [inhibitor, single point]"
16,COC(=O)c1ccc(C2Nc3c(C)cc(C)cc3C3C=CCC32)cc1 (configuration not stated),inactive
17,CC(NCc1ccc2c(c1)nc(NC(=O)c1ccc(-c3cn[nH]c3)s1)n2CC(C)(C)O)C(C)(C)C (configuration not stated),"inconclusive [inhibitor, single point]"
18,Cc1cc(OCC(=O)NCC2(N3CCN(C)CC3)CCCCC2)cc(C)c1Cl,"inconclusive [inhibitor, single point]"
19,CCCOc1ccc(N2CC(C(=O)Nc3cccc(Cl)c3Cl)CC2=O)cc1 (configuration not stated),"inconclusive [inhibitor, single point]"
20,CC(C)c1ccc(Nc2nc3ccc(C(=O)c4ccccc4)cc3n3cnnc23)cc1,"inconclusive [inhibitor, single point]"
21,Cc1cc(C)cc(C(=O)Nc2ccc(-c3cn4cccnc4n3)cc2)c1,"inconclusive [inhibitor, single point]"

row,SMILES,Potency
1,COc1ccc(NC(=O)c2oc3ccccc3c2NC(=O)Cc2ccc(F)cc2)c(OC)c1,inactive
2,CCN1CCN(c2cc(C)c3cc(NC(=O)c4cc(OC)cc(OC)c4)ccc3n2)CC1,"inconclusive [inhibitor, single point]"
3,CCC[C@@H](C=O)NC(=O)[C@H](CC(C)C)NC(=O)[C@H](CC(C)C)NC(=O)OCc1ccccc1 (Cbz-Leu-Leu-[Nva]-aldehyde),"inconclusive [inhibitor, single point]"
4,O=C(CCn1c(=O)c2cccn2c2cccnc21)NCc1cccc(Br)c1,"inconclusive [inhibitor, single point]"
5,CCOc1ccc(CNC(=O)c2cccc(Nc3nc4ccccc4n4nnnc34)c2)cc1OC,"inconclusive [inhibitor, single point]"
6,Cc1ccc(CNc2c(C)c(C)nc3nncn23)cc1,inactive
7,Nc1c(C(=O)Nc2ccc(Cl)c(C(F)(F)F)c2)sc2nc(-c3ccncc3)ccc12,"inconclusive [inhibitor, single point]"
8,CCCS(=O)(=O)c1ncc(Cl)c(C(=O)Nc2c(C(=O)c3ccccc3)oc3ccccc23)n1,inactive
9,CCCCCn1c(NCc2ccccc2OC)nc2ccccc21,"inconclusive [inhibitor, single point]"
10,N[C@@]1(C(=O)O)CS(=O)(=O)[C@H]2[C@H](C(=O)O)[C@H]21,inactive
11,CCC(=O)O[C@]1(C(=O)CO)CC[C@H]2[C@@H]3CCC4=CC(=O)CC[C@]4(C)[C@@H]3CC[C@@]21C,inactive
12,COc1ccc(C(=O)Nc2ccc(-c3cc4ccccc4oc3=O)c(C)c2)cc1Br,"inconclusive [inhibitor, single point]"
13,COc1cccc(CNCCSc2nnnn2C)c1OCc1ccc(Cl)cc1Cl,"inconclusive [inhibitor, single point]"
14,Cc1cc2nn(-c3ccc(F)cc3)nc2cc1NC(=O)c1ccc(OC(C)C)cc1,inactive
15,O=c1oc2ccccc2n1CCCOc1ccccc1Cl,inactive
16,CCNC(=O)CCCC=CC[C@@H]1[C@H](C=CC(O)CCc2ccccc2)[C@@H](O)C[C@@H]1O (some centres not stated),inactive
17,CN(C)c1ccc(C(=C2C=CC(=[N+](C)C)C=C2)c2ccc(N(C)C)cc2)cc1,"inconclusive [inhibitor, full curve, poor fit]"
18,CCOC(=O)c1c(NC(=O)c2ccc(S(=O)(=O)N(CC(C)C)CC(C)C)cc2)sc2c1CCN(CC)C2,inactive
19,COc1ccc(OC)c(NC(=O)COCc2cc(-c3ccco3)on2)c1,"inconclusive [inhibitor, single point]"
20,Cc1nc(Nc2ncc(C(=O)Nc3c(C)cccc3Cl)s2)cc(N2CCN(CCO)CC2)n1,"inconclusive [inhibitor, full curve]"
21,COc1cc(N2CCC(N3CCN(C)CC3)CC2)ccc1Nc1ncnc(Nc2ccccc2S(=O)(=O)C(C)C)n1,"inconclusive [inhibitor, single point]"
